We go through 75 compounds from patent US20250221953A1 (The University of Chicago, priority 2022, published 2025).

Counter-ions that a name gives are not always drawn.

The experiment has as its system PD-1^+ Jurkat T cells co-cultured with H596 (PD-L1^+) cells. In words: 1st screen 1b: rescue of PD-L1/PD-1 dependent exhaustion of PD-1+ Jurkat T cells in co-culture (IL-2 ELISA). It is filed as cell-based, human. The note with it: 1st screen 1b (Table 4): rescue of PD-L1/PD-1 dependent exhaustion of PD-1 expressing Jurkat T cells co-cultured with PD-L1-expressing H596 cells. A general note: In an ELISA, binding on a coated surface is turned into a signal by an enzyme label.
With `C[C@H](O)C(=O)[O-].[Na+]` [L(+)LACTIC ACID SODIUM], the “Relative changed percentage (%)” value is −29.31%.

For `C[N+](C)(C)[C@@H](Cc1c[nH]c(=S)[nH]1)C(=O)[O-]` [L-(+)-ERGOTHIONEINE INNER SALT], the “Relative changed percentage (%)” value was found to be 1.808%.

As to `O=C1O[C@H]([C@@H](O)CO)C(O)=C1O` [L-ASCORBIC ACID BIOXTRA,], the “Relative changed percentage (%)” value was −52.46%.

In the case of `N=C(N)NCCC[C@H](N)C(=O)O` [L-Arginine], the “Relative changed percentage (%)” value is −34.94%.

As for `NC(=O)C[C@H](N)C(=O)O` [L-Asparagine], the “Relative changed percentage (%)” value was −12.81%.

As for `N[C@@H](CC(=O)O)C(=O)O` [L-Aspartic Acid], the “Relative changed percentage (%)” value is −45.5%.

`N[C@@H](CC(=O)[O-])C(=O)[O-].[K+].[K+]` [L-Aspartic acid potassium salt]: the “Relative changed percentage (%)” value came out at 36.7%.

Consider `NC(=O)NCCC[C@H](N)C(=O)O` [L-CITRULLINE], for which the “Relative changed percentage (%)” value worked out at 137.2%.

Consider `N[C@@H](CS)C(=O)O` [L-Cysteine], for which the “Relative changed percentage (%)” value was −23.89%.

Consider `N[C@@H](CSSC[C@H](N)C(=O)O)C(=O)O` [L-Cystine], for which the “Relative changed percentage (%)” value is 14.13%.

On to `N[C@@H](CCC(=O)O)C(=O)O` [L-Glutamic Acid], for which the “Relative changed percentage (%)” value was −17.58%.

Consider `NC(=O)CC[C@H](N)C(=O)O` [L-Glutamine], for which the “Relative changed percentage (%)” value turned out to be 32.61%.

On to `Cl.N[C@@H](Cc1c[nH]cn1)C(=O)O` [L-Histidine hydrochloride], for which the “Relative changed percentage (%)” value was −46.68%.

As for `CC[C@H](C)[C@H](N)C(=O)O` [L-Isoleucine], the “Relative changed percentage (%)” value came to 31.56%.

For `CC(C)C[C@H](N)C(=O)O` [L-Leucine], the “Relative changed percentage (%)” value is recorded as −2.664%.

In the case of `Cl.NCCCC[C@H](N)C(=O)O` [L-Lysine hydrochloride], the “Relative changed percentage (%)” value was found to be 11.29%.

As to `Cl.NCCC[C@H](N)C(=O)O` [L-ORNITHINE MONOHYDROCHLORIDE], the “Relative changed percentage (%)” value is listed as −48.43%.

With `N[C@@H](Cc1ccccc1)C(=O)O` [L-Phenylalanine], the “Relative changed percentage (%)” value is reported as −8.744%.

For the compound `N[C@@H](CO)C(=O)O` [L-Serine], the “Relative changed percentage (%)” value is 18.76%.

As for `N[C@@H](Cc1cc(I)c(Oc2cc(I)c(O)c(I)c2)c(I)c1)C(=O)O` [L-THYROXINE], the “Relative changed percentage (%)” value was −38.36%.

`C[C@@H](O)[C@H](N)C(=O)O` [L-Threonine]: the “Relative changed percentage (%)” value came to 49.48%.

With `N[C@@H](Cc1c[nH]c2ccccc12)C(=O)O` [L-Tryptophan], the “Relative changed percentage (%)” value is 76.34%.

On to `N[C@@H](Cc1ccc(O)cc1)C(=O)O` [L-Tyrosine], for which the “Relative changed percentage (%)” value was −27.69%.

As for `CC(C)[C@H](N)C(=O)O` [L-Valine], the “Relative changed percentage (%)” value was −20.77%.

Take `[S]=[Pb]` [LEAD(II) SULFIDE]: the “Relative changed percentage (%)” value was −39.31%.

On to `CC(=O)CC(=O)[O-].[Li+]` [LITHIUM ACETOACETATE/Acetoacetic acid, LITHIUM ACETOACETATE], for which the “Relative changed percentage (%)” value is −8.413%.

As to `CC1=C[C@H](O)CC(C)(C)[C@H]1/C=C/C(C)=C/C=C/C(C)=C/C=C/C=C(C)/C=C/C=C(C)/C=C/C1=C(C)C[C@@H](O)CC1(C)C` [Lutein], the “Relative changed percentage (%)” value came to 2.386%.

Turning to `CC(C)=CCC/C(C)=C/C=C/C(C)=C/C=C/C(C)=C/C=C/C=C(C)/C=C/C=C(C)/C=C/C=C(\C)CCC=C(C)C` [Lycopene], the “Relative changed percentage (%)” value is on record as −19.7%.

For the compound `[Cl-].[Cl-].[Mg+2]` [MAGNESIUM CHLORIDE ANHYDROUS], the “Relative changed percentage (%)” value is reported as −38.6%.

Take `COc1ccc2[nH]cc(CCNC(C)=O)c2c1` [MELATONIN CRYSTALLINE/melatonin, melatonin]: the “Relative changed percentage (%)” value was determined as 13.63%.

For `[Cl][Hg][Cl]` [MERCURY(II) CHLORIDE], the “Relative changed percentage (%)” value came to 22.69%.

`O[C@H]1[C@H](O)[C@@H](O)[C@H](O)[C@@H](O)[C@H]1O` [MYO-INOSITOL]: the “Relative changed percentage (%)” value is reported as −68.77%.

As to `N[C@@H](CC(=O)[O-])C(=O)[O-].[Mg+2]` [Magnesium Aspartate], the “Relative changed percentage (%)” value amounted to 27.84%.

As for `O=C(O)CC(O)C(=O)O` (stereo not drawn) [Malic acid], the “Relative changed percentage (%)” value came out at 25.66%.

For the compound `CS(C)(=O)=O` [Methylsulfonylmethane], the “Relative changed percentage (%)” value was −40.49%.

On to `CCCCCCCCCCCCCC(=O)O` [Myristic Acid], for which the “Relative changed percentage (%)” value was −55.85%.

Turning to `CCCC/C=C\CCCCCCCC(=O)O` [Myristoleic acid], the “Relative changed percentage (%)” value is given as 11.08%.

As to `CC(=O)N[C@H]1C(O)O[C@H](CO)[C@@H](O)[C@@H]1O` (stereo partly drawn) [N-acetyl D-glucosamine], the “Relative changed percentage (%)” value was −27.21%.

Take `NC[C@H](O)c1ccc(O)c(O)c1` [NOREPINEPHRINE]: the “Relative changed percentage (%)” value is −37.51%.

Take `CCCCCCCC/C=C\CCCCCCCCCCCCCC(=O)O` [Nervonic acid]: the “Relative changed percentage (%)” value turned out to be 32.9066%.

Regarding `COc1nc(N)nc2nc[nH]c12` [O-METHYLGUANINE], the “Relative changed percentage (%)” value was −16.54%.

As for `O=C(O)C(=O)O` [OXALIC ACID SODIUM SALT], the “Relative changed percentage (%)” value was 7.933%.

On to `CC[C@H](C)[C@@H]1NC(=O)[C@H](Cc2ccc(O)cc2)NC(=O)[C@@H](N)CSSC[C@@H](C(=O)N2CCC[C@H]2C(=O)N[C@@H](CC(C)C)C(=O)NCC(N)=O)NC(=O)[C@H](CC(N)=O)NC(=O)[C@H](CCC(N)=O)NC1=O` [OXYTOCIN], for which the “Relative changed percentage (%)” value is recorded as −68.75%.

Regarding `CC(C)CCCC(C)CCCC(C)CCCC(C)CC(=O)O` (stereo not drawn) [PHYTANIC ACID], the “Relative changed percentage (%)” value is listed as −12.92%.

Turning to `[Br-].[K+]` [POTASSIUM BROMIDE], the “Relative changed percentage (%)” value was found to be 30.33%.

As to `[Cl-].[K+]` [POTASSIUM CHLORIDE/potassium, POTASSIUM CHLORIDE], the “Relative changed percentage (%)” value is −43.64%.

`CC(=O)O[C@H]1CC[C@@]2(C)C(=CC[C@H]3[C@@H]4CC[C@H](C(C)=O)[C@@]4(C)CC[C@@H]32)C1` [PREGNENOLONE ACETATE/pregnenolone]: the “Relative changed percentage (%)” value is reported as −76.95%.

Turning to `c1ncc2[nH]cnc2n1` [PURINE], the “Relative changed percentage (%)” value is reported as −47.53%.

With `Cc1ncc(CO)c(CO)c1O` [PYRIDOXINE], the “Relative changed percentage (%)” value was −33.18%.

As to `c1cncnc1` [PYRIMIDINE], the “Relative changed percentage (%)” value is on record as −7.98%.

As for `CC(=O)C(=O)O` [PYRUVIC ACID], the “Relative changed percentage (%)” value is on record as 13.11%.

For the compound `CCCCCCCCCCCCCCCC(=O)O` [Palmitic Acid], the “Relative changed percentage (%)” value is recorded as −86.34%.

`CCCCCC/C=C\CCCCCCCC(=O)O` [Palmitoleic acid]: the “Relative changed percentage (%)” value was −82.7%.

On to `O=C([O-])CC(O)(CC(=O)[O-])C(=O)[O-].[K+].[K+].[K+]` [Potassium Citrate], for which the “Relative changed percentage (%)” value is −17.95%.

Regarding `O=C([O-])[C@H](O)[C@@H](O)[C@H](O)[C@H](O)CO.[K+]` [Potassium Gluconate], the “Relative changed percentage (%)” value is −41.51%.

For the compound `O=P([O-])([O-])O.[K+].[K+]` [Potassium Phosphate Dibasic], the “Relative changed percentage (%)” value is −4.5%.

Regarding `COc1cc(/C=C/c2ccc(O)cc2)cc(OC)c1` [Pterostibene], the “Relative changed percentage (%)” value is −66.85%.

Take `Cc1ncc(CO)c(C=O)c1O.Cl` [Pyridoxal Hydrochloride]: the “Relative changed percentage (%)” value is listed as 42.34%.

Turning to `Cc1ncc(CO)c(CO)c1O.Cl` [Pyridoxine Hydrochloride], the “Relative changed percentage (%)” value worked out at 96.19%.

As to `O=c1c(O)c(-c2ccc(O)c(O)c2)oc2cc(O)cc(O)c12` [Quercetin], the “Relative changed percentage (%)” value is listed as −55.67%.

As for `Oc1ccc(C=Cc2cc(O)cc(O)c2)cc1` [Resveratrol], the “Relative changed percentage (%)” value is −46.18%.

For the compound `C[C@@H]1O[C@@H](OC[C@H]2O[C@@H](Oc3c(-c4ccc(O)c(O)c4)oc4cc(O)cc(O)c4c3=O)[C@H](O)[C@@H](O)[C@@H]2O)[C@H](O)[C@H](O)[C@H]1O` [Rutoside trihydrate], the “Relative changed percentage (%)” value was −33.86%.

Take `[Br-].[Na+]` [SODIUM BROMIDE]: the “Relative changed percentage (%)” value was −24.92%.

In the case of `[Cl-].[Na+]` [SODIUM CHLORIDE], the “Relative changed percentage (%)” value is on record as 38.77%.

In the case of `CCCCCCCCCCCCC/C=C/[C@@H](O)[C@H](COP(=O)([O-])OCC[N+](C)(C)C)NC(=O)CCCCCCCCCCCCCCC` [SPHINGOMYELIN/SM(d18:1/16:0)], the “Relative changed percentage (%)” value is −49.66%.

Take `OC[C@H]1O[C@@](CO)(O[C@H]2O[C@H](CO)[C@@H](O)[C@H](O)[C@H]2O)[C@@H](O)[C@@H]1O` [SUCROSE]: the “Relative changed percentage (%)” value is listed as −13.14%.

As for `[F-].[Na+]` [Sodium Fluoride], the “Relative changed percentage (%)” value was 9.588%.

Turning to `[Na+].[Na+].[O]=[Mo](=[O])([O-])[O-]` [Sodium Molybdate], the “Relative changed percentage (%)” value is −25.53%.

For the compound `O=C([O-])CC(O)(CC(=O)[O-])C(=O)[O-].[Na+].[Na+].[Na+]` [Sodium citrate], the “Relative changed percentage (%)” value was −60.77%.

`CCCCCCCCCCCCCCCCCC(=O)O` [Stearic Acid]: the “Relative changed percentage (%)” value is reported as −85.81%.

As to `CC/C=C\C/C=C\C/C=C\C/C=C\CCCCC(=O)O` [Stearidonic Acid], the “Relative changed percentage (%)” value is reported as 22.77%.

For `Cn1cnc2c1c(=O)[nH]c(=O)n2C` [THEOBROMINE], the “Relative changed percentage (%)” value worked out at 211.6%.

`Cc1ncc(C[n+]2csc(CCO[P@](=O)(O)OP(=O)(O)O)c2C)c(N)n1` [THIAMINE PYROPHOSPHATE]: the “Relative changed percentage (%)” value was −9.507%.

As for `Cc1cn([C@H]2C[C@H](O)[C@@H](CO)O2)c(=O)[nH]c1=O` [THYMIDINE], the “Relative changed percentage (%)” value is listed as 162.2%.

On to `[Cl][Sn][Cl]` [TIN(II) CHLORIDE/Tin, TIN(II) CHLORIDE], for which the “Relative changed percentage (%)” value stood at 66.3%.
